According to a compilation of properties of binary mixtures (doi:10.1021/acs.jced.0c00987):
Some of these densities may be calculated back from excess volumes.

Assay: xn = mol fraction of the nth substance listed
Settings: 100 kPa

OCCN(CCO)CCO + CCOS(=O)(=O)[O-].CC[n+]1ccn(C)c1
mass density [kg/m3]
Settings	293.15 K	298.15 K	303.15 K	313.15 K
x1 = 0.52	1187	1184	1181	1174
x1 = 0.617	–	1172	–	1162
x1 = 0.703	1166	1162	1160	1153
x1 = 0.787	1155	–	1149	1143
x1 = 0.866	1144	1140	–	1131
x1 = 0.929	1135	–	–	1123
x1 = 0.967	–	–	–	1117
x1 = 1	1122	1119	1116	1111
x2 = 0.003	1124	1121	1118	1112
x2 = 0.006	1124	1121	–	1113
x2 = 0.019	1126	1123	1121	1115

OCCO + CCOS(=O)(=O)[O-].CC[n+]1ccn(C)c1
x1 = 1
Settings	mass density [kg/m3]
293.15 K	1113
313.15 K	1099

OCCN(CCO)CCO + CC[n+]1ccn(C)c1.O=S(=O)([O-])C(F)(F)F
mass density [kg/m3]
Settings	293.15 K	298.15 K	303.15 K	313.15 K
x1 = 0.084	–	1365	–	1353
x1 = 0.167	1352	1348	–	–
x1 = 0.305	1321	1317	1313	1305
x1 = 0.426	1293	–	1285	1278
x1 = 0.539	1265	–	1257	1250
x1 = 0.641	1239	1236	–	1226
x1 = 0.723	1214	1211	1208	–
x1 = 0.802	1189	1185	1182	1176
x1 = 0.875	1167	–	1161	1155
x1 = 0.94	1145	1141	1138	1132
x1 = 0.969	1133	1130	1127	1121
x1 = 1	1122	1119	1116	1111
x2 = 0.003	1124	1122	1119	1113
x2 = 0.006	1125	1123	–	–
x2 = 0.017	1130	1127	1124	1118

OCCO + CC[n+]1ccn(C)c1.O=S(=O)([O-])C(F)(F)F
x1 = 1
Settings	mass density [kg/m3]
293.15 K	1113
298.15 K	1109
303.15 K	1106
313.15 K	1099

CCOS(=O)(=O)[O-].CC[n+]1ccn(C)c1 + OCC(O)CO
mass density [kg/m3]
Settings	293.15 K	298.15 K	303.15 K	313.15 K
x1 = 0.002	1260	1257	1254	–
x1 = 0.004	1260	1256	1254	–
x1 = 0.012	1258	1255	1252	1245
x2 = 0.123	1240	–	1233	1226
x2 = 0.264	1239	1235	–	1225
x2 = 0.39	1238	1235	1231	1224
x2 = 0.5	–	1235	–	1225
x2 = 0.601	1239	–	1233	1225
x2 = 0.703	1242	1238	1235	1228
x2 = 0.794	1245	1241	1238	1231
x2 = 0.901	1252	1248	1245	1238
x2 = 0.958	1256	1253	1250	–
x2 = 0.98	1258	1255	–	1245
